From patent EP4722253A1 (dated 2026) come the findings set out here.

The target in this test is T1, rhVEGF 165 recombinant protein (human, UniProt P15692-4 27-191).
T1 construct: also called VEGF-A
T1 sequence (looked up): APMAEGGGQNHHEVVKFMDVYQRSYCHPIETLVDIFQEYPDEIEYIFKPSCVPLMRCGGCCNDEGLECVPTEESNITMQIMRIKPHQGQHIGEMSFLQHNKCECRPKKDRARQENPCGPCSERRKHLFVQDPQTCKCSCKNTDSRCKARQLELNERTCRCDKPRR
As to the kind of experiment: single antigen ELISA, rhVEGF165 coated, anti-hIgG Fc-HRP. (In general: An ELISA detects its analyte on a solid surface through an enzyme-linked reagent.)

B1: Q-SBL-108 (bispecific antibody, human IgG1, kappa)
heavy 1: [skipping about 120 residues]ASPREPQVCTLPPSREEMTKNQVSLSCAVKGFYPSDIAVEWESNGQPENNYKTTPPVLDSDGSFFLVSKLTVDKSRWQQGNVFSCSVMHEALHNHYTQKSLSLSPGKGGGGSASTKGPSVFPLAPSSKSTSGGTAALGCLVKDYFPEPVTVSWNSGALTSGVHTFPAVLQSSGLYSLSSVVTVPSSSLGTQTYICNVNHKPSNTKVDKKVEPKSSDKTHTCPPCPAPELLGGPSVFLFPPKPKDTLMISRTPEVTCVVVDVSHEDPEVKFNWYVDGVEVHNAKTKPREEQYNSTYRVVSVLTVLHQDWLNGKEYKCKVSNKALPAPIEKTISKAKGQPREPQVYTLPPCREEMTKNQVSLSCAVKGFYPSDIAVEWESNGQPENNYKTTPPVLDSDGSFFLVSKLTVDKSRWQQGNVFSCSVMHEALHNHYTQKSLSLSPGK
heavy 2: EVQLVESGGGLVQPGGSLRLSCAASGYTFTNYGMNWVRQAPGKGLEWVGWINTYTGEPTYAADFKRRFTFSLDTSKSTAYLQMNSLRAEDTAVYYCAKYPHYYGSSHWYFDVWGQGTLVTVSSASTKGPSVFPLAPSSKSTSGGTAALGCLVKDYFPEPVTVSWNSGALTSGVHTFPAVLQSSGLYSLSSVVTVPSSSLGTQTYICNVNHKPSNTKVDKKV[skipping human IgG1 Fc with changes]
light 1: [skipping about 100 residues]RTPREPQVYTLPPCREEMTKNQVSLWCLVKGFYPSDIAVEWESNGQPENNYKTTPPVLDSDGSFFLYSKLTVDKSRWQQGNVFSCSVMHEALHNHYTQKSLSLSPGKGGGGSRTVAAPSVFIFPPSDEQLKSGTASVVCLLNNFYPREAKVQWKVDNALQSGNSQESVTEQDSKDSTYSLSSTLTLSKADYEKHKVYACEVTHQGLSSPVTKSFNRGES
light 2: DIQMTQSPSSLSASVGDRVTITCSASQDISNYLNWYQQKPGKAPKVLIYFTSSLHSGVPSRFSGSGSGTDFTLTISSLQPEDFATYYCQQYSTVPWTFGQGTKVEIKRTVAAPSVFIFPPSDEQLKSGTASVVCLLNNFYPREAKVQWKVDNALQSGNSQESVTEQDSKDSTYSLSSTLTLSKADYEKHKVYACEVTHQGLSSPVTKSFNRGEC
notes: copies: 1 + 1 + 1 + 1
Consider B1, for which the EC50 (in general, the concentration giving half of the maximal effect) turned out to be 0.066 nM.

B2: Q-SBL-100 (bispecific antibody, human IgG1, kappa)
heavy 1: [skipping about 120 residues]ASPREPQVYTLPPCREEMTKNQVSLSCAVKGFYPSDIAVEWESNGQPENNYKTTPPVLDSDGSFFLVSKLTVDKSRWQQGNVFSCSVMHEALHNHYTQKSLSLSPGKGGGGSASTKGPSVFPLAPSSKSTSGGTAALGCLVKDYFPEPVTVSWNSGALTSGVHTFPAVLQSSGLYSLSSVVTVPSSSLGTQTYICNVNHKPSNTKVDKKVEPKSSDKTHTCPPCPAPELLGGPSVFLFPPKPKDTLMISRTPEVTCVVVDVSHEDPEVKFNWYVDGVEVHNAKTKPREEQYNSTYRVVSVLTVLHQDWLNGKEYKCKVSNKALPAPIEKTISKAKGQPREPQVYTLPPCTLPPSREEMTKNQVSLSCAVKGFYPSDIAVEWESNGQPENNYKTTPPVLDSDGSFFLVSKLTVDKSRWQQGNVFSCSVMHEALHNHYTQKSLSLSPGK
heavy 2: EVQLVESGGGLVQPGGSLRLSCAASGYTFTNYGMNWVRQAPGKGLEWVGWINTYTGEPTYAADFKRRFTFSLDTSKSTAYLQMNSLRAEDTAVYYCAKYPHYYGSSHWYFDVWGQGTLVTVSSASTKGPSVFPLAPSSKSTSGGTAALGCLVKDYFPEPVTVSWNSGALTSGVHTFPAVLQSSGLYSLSSVVTVPSSSLGTQTYICNVNHKPSNTKVDKKV[skipping human IgG1 Fc with changes]
light 1: [skipping about 100 residues]RTPREPQVCTLPPSREEMTKNQVSLWCLVKGFYPSDIAVEWESNGQPENNYKTTPPVLDSDGSFFLYSKLTVDKSRWQQGNVFSCSVMHEALHNHYTQKSLSLSPGKGGGGSRTVAAPSVFIFPPSDEQLKSGTASVVCLLNNFYPREAKVQWKVDNALQSGNSQESVTEQDSKDSTYSLSSTLTLSKADYEKHKVYACEVTHQGLSSPVTKSFNRGES
light 2: B1 light 2
notes: copies: 1 + 1 + 1 + 1
With B2, the EC50 was determined as 0.1 nM.
